This note sets out measurements from publication PMC11208920.

Assay [1] has as its target T1, HA-tagged full-length human LARP6 (human) (UniProt Q9BRS8).
T1 sequence: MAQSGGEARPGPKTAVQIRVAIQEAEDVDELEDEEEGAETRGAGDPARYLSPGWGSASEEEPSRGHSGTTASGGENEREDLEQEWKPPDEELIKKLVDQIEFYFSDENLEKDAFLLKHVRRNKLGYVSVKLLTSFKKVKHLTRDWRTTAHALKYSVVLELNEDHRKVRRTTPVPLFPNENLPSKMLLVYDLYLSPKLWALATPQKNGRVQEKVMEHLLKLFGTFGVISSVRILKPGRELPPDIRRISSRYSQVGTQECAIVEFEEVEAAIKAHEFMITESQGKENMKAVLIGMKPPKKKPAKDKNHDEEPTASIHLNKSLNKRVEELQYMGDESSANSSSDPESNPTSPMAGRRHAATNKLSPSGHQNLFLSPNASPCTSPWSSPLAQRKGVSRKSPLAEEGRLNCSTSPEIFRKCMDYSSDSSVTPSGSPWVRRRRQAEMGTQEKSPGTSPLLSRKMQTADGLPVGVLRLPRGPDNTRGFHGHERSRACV
Briefly: co-IP; HEK293T cells transfected with tagged proteins; HA-tagged LARP6 forms immunoprecipitated from cleared lysate (0.5% NP-40 lysis buffer, 4 °C, protein A/G-agarose), Flag-tagged DNAAF6 analysed in the precipitate.

Assay [2] addresses T2, human LARP6 fragment, aa 73-303 (yeast two-hybrid bait) (human) (UniProt Q9BRS8).
T2 sequence: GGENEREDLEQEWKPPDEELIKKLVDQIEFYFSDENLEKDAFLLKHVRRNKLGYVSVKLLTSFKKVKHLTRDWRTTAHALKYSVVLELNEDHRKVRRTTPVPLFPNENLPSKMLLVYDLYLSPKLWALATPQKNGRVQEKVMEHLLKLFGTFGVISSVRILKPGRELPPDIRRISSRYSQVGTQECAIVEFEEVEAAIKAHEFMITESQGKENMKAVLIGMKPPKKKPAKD
Briefly: two-hybrid; yeast two-hybrid screen; hLARP6 aa 73-303 in pGBKT7 as bait against a Clontech Mouse Embryonic Fibroblast Matchmaker cDNA library; His auxotrophy and LacZ activation.

The target in assay [3] is T3, Flag-tagged human DNAAF6 (expressed in HEK293T cells) (human) (UniProt Q9NQM4).
T3 sequence: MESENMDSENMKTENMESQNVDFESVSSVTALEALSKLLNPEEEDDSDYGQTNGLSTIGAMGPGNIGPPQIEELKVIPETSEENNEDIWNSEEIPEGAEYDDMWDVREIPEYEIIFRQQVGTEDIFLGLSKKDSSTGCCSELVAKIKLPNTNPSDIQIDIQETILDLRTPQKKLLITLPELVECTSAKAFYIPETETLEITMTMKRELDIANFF
Briefly: co-IP; HEK293T cell extract; Flag-tagged hDNAAF6 immunoprecipitated, HA-tagged FL hLARP6 analysed in the precipitate; extract untreated or treated with RNase before coimmunoprecipitation.

No constants are given. Whether binding was seen depends on the method and setting. For some assays here: Binding seen in cells or lysates may run through a third protein. Some results given as binding are weak or reduced against the parent protein; the word gives no strength. For some assays here: Where a sequence is shown, tags or fusion partners need not be part of it.

B1: Flag-tagged human DNAAF6 (expressed in HEK293T cells) (protein, UniProt Q9NQM4 1-214)
chain: MESENMDSENMKTENMESQNVDFESVSSVTALEALSKLLNPEEEDDSDYGQTNGLSTIGAMGPGNIGPPQIEELKVIPETSEENNEDIWNSEEIPEGAEYDDMWDVREIPEYEIIFRQQVGTEDIFLGLSKKDSSTGCCSELVAKIKLPNTNPSDIQIDIQETILDLRTPQKKLLITLPELVECTSAKAFYIPETETLEITMTMKRELDIANFF
Consider B1, for which the binding entry in assay [1] is reported as “binds”.

B2: Flag-tagged human DNAAF6 D133Y (protein, UniProt Q9NQM4 1-214)
chain: MESENMDSENMKTENMESQNVDFESVSSVTALEALSKLLNPEEEDDSDYGQTNGLSTIGAMGPGNIGPPQIEELKVIPETSEENNEDIWNSEEIPEGAEYDDMWDVREIPEYEIIFRQQVGTEDIFLGLSKKYSSTGCCSELVAKIKLPNTNPSDIQIDIQETILDLRTPQKKLLITLPELVECTSAKAFYIPETETLEITMTMKRELDIANFF
With B2, in assay [1], the binding result is “binds”.

B3: Flag-tagged human DNAAF6 Q171∗ (expressed in HEK293T cells) (domain or fragment, UniProt Q9NQM4 1-170)
chain: MESENMDSENMKTENMESQNVDFESVSSVTALEALSKLLNPEEEDDSDYGQTNGLSTIGAMGPGNIGPPQIEELKVIPETSEENNEDIWNSEEIPEGAEYDDMWDVREIPEYEIIFRQQVGTEDIFLGLSKKDSSTGCCSELVAKIKLPNTNPSDIQIDIQETILDLRTP
Consider B3, for which the binding entry in assay [1] was “no binding”.

B4: DNAAF6, full size clone from a Mouse Embryonic Fibroblast cDNA library (yeast two-hybrid prey) (protein, UniProt Q3KNI6 1-218)
chain: MESENAEAENVVTGNLEAKSKEGKNMQFVTLSSAWSLQALSSLLNPEEEDGFDFEQGQCSFTIGAMGPGNIGPPKAKESKAIPEPRSDESENIWNPEEVPEGAEHDDIWDVREIPDYEIVFQQTVGTEDVYLGLTRKDPSTACCQELVVKIKLPNTNPSEIQIDIQEMLLDLRTPRKKLLVNFPQPVERNSARASYIWEAETLEVRMTVQRDLDFNIS
Turning to B4, the binding entry in assay [2] is on record as “binds”.

B5: HA-tagged full-length human LARP6 (protein, UniProt Q9BRS8 1-491)
chain: MAQSGGEARPGPKTAVQIRVAIQEAEDVDELEDEEEGAETRGAGDPARYLSPGWGSASEEEPSRGHSGTTASGGENEREDLEQEWKPPDEELIKKLVDQIEFYFSDENLEKDAFLLKHVRRNKLGYVSVKLLTSFKKVKHLTRDWRTTAHALKYSVVLELNEDHRKVRRTTPVPLFPNENLPSKMLLVYDLYLSPKLWALATPQKNGRVQEKVMEHLLKLFGTFGVISSVRILKPGRELPPDIRRISSRYSQVGTQECAIVEFEEVEAAIKAHEFMITESQGKENMKAVLIGMKPPKKKPAKDKNHDEEPTASIHLNKSLNKRVEELQYMGDESSANSSSDPESNPTSPMAGRRHAATNKLSPSGHQNLFLSPNASPCTSPWSSPLAQRKGVSRKSPLAEEGRLNCSTSPEIFRKCMDYSSDSSVTPSGSPWVRRRRQAEMGTQEKSPGTSPLLSRKMQTADGLPVGVLRLPRGPDNTRGFHGHERSRACV
Consider B5, for which the binding result in assay [3] is reported as “binds”.
